Results taken from PubChem BioAssay AID624417 (National Center for Advancing Translational Sciences (NCATS), 2012).
Among all 410,000 compounds or so, about 6,400 (1.6%) were called active. Inconclusive means that the source gave no clear call. Such entries were picked first, then a sample of the others. Calls follow the shape of the dose curve; as a rule, active = well fitted inhibition curve with a large enough effect; inconclusive = small, poorly fitted or top-dose-only effect; inactive = no such curve, though single readings can be large or run the other way. No potency is given beside an inconclusive call; the fits are too rough.

biological target: Glucagon-like peptide 1 receptor (Homo sapiens) (UniProt P43220); assay: qHTS of GLP-1 Receptor Inverse Agonists (Inhibition Mode); details: HEK293 GLP-1R CRE-luciferase, luminescence, 24 h, GLP-1R form is constitutively active; activity change, negative = inhibition: at 38.3 µM (top of the series) unless noted; also: nearly all actives have a fitted effect of over 55% in size
UniProt P43220, sequence (P43220 whole entry, looked up): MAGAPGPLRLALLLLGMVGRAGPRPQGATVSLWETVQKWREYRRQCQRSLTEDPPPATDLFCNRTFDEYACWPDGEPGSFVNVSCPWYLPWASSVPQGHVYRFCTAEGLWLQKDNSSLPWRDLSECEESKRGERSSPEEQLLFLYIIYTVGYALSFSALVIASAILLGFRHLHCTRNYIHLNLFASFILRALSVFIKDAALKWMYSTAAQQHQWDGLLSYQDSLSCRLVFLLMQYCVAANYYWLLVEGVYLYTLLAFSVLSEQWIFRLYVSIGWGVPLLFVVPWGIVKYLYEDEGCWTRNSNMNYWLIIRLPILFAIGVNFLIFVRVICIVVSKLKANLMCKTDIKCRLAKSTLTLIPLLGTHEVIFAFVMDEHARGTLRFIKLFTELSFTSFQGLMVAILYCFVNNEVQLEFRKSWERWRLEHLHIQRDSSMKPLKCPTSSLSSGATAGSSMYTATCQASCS
Procedure, shortened: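 Luminescence readout: a drop in cAMP-driven luciferase signal flags inverse agonism at a constitutively active GLP-1R stably expressed in HEK293. Compound exposure lasted 24 hr at 37 deg C, 5% CO2.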
% is scaled to controls: 0 for no effect and ±100 for the full control effect; potency is read from the fitted curve at half-maximal effect; tags tell the direction and shape of the fitted curve.

SMILES	activity change, negative = inhibition	Potency
O=C(CSc1n[nH]c(-c2ccc(S(=O)(=O)N3CCCCC3)cc2)n1)Nc1nccs1	inactive: -13.5%	
CCCn1c(N)c(N(CCOC)C(=O)c2ccccc2)c(=O)[nH]c1=O		inconclusive [inhibitor, single point]
CN1CCN(C(=S)c2cn(Cc3cccc(F)c3)c3ccccc23)CC1		inconclusive [inhibitor, single point]
COc1ccc2c(c1)-c1nc(NC(=O)c3cccs3)sc1CC2		inconclusive [inhibitor, single point]
O=C(NNc1cc(N2CCOCC2)nc(N2CCOCC2)n1)c1ccc(Cl)c(Cl)c1		inconclusive [inhibitor, single point]
O=C(COc1ncnc2c1cnn2-c1ccccc1)Nc1ccc(S(=O)(=O)N2CCCCC2)cc1		inconclusive [inhibitor, single point]
CN(C)C(=O)c1ccccc1Sc1ccc(Cl)cc1Cl		inconclusive [inhibitor, partial curve, poor fit]
CCCNC(=O)OCc1cccnc1Sc1ccc(C)cc1		inconclusive [inhibitor, partial curve, poor fit]
O=C(CCn1cnc2onc(-c3ccc(F)cc3)c2c1=O)N1CCN(c2ccccc2)CC1		inconclusive [inhibitor, single point]
CCN1CCN(c2oc(-c3ccccc3C)nc2S(=O)(=O)c2ccccc2)CC1		inconclusive [inhibitor, partial curve, poor fit]
CCN=C1SC(CC(=O)Nc2ccc(C(F)(F)F)cc2)C(=O)N1CC (stereo not drawn)		inconclusive [inhibitor, partial curve]
COC(=O)/C=C1/S/C(=N/N=C/c2ccco2)NC1=O	inactive: 3.83%	
Cc1ccccc1NS(=O)(=O)c1ccc(C(=O)N2CCN(c3ccccc3O)CC2)cc1		inconclusive [inhibitor, partial curve, poor fit]
Cc1ccc2nc(N(CCN(C)C)C(=O)/C=C/c3cccs3)sc2c1		inconclusive [inhibitor, full curve, poor fit]
O=C(CC1CC2CCC1C2)N1CCN(S(=O)(=O)c2ccccc2C(F)(F)F)CC1 (stereo not drawn)		inconclusive [inhibitor, partial curve]
O=C(Nc1cccc(Cl)c1)Nc1nnc(CSCCOc2ccc(Cl)cc2)s1		inconclusive [inhibitor, full curve, poor fit]
O=C(Cn1c(=O)oc2cc(S(=O)(=O)N3CCCC3)ccc21)Nc1ccc(OC(F)(F)F)cc1	inactive: 5.08%	
Cc1nc2ccc(S(=O)(=O)N(CC(=O)Nc3cccc(C)c3C)Cc3ccccc3)cc2s1	inactive: 6.94%	
CN(C)C(=O)N1CCC(C(=O)NCc2ccc(F)cc2Cl)CC1	inactive: -24.2%	
Cc1ccc(OCCSc2nc3ccccc3n2CC(=O)N2CCCCC2)c(C)c1		inconclusive [inhibitor, single point]
NC(=S)N/N=C/c1ccc(-c2cc(Cl)cc(Cl)c2)o1		inconclusive [inhibitor, full curve]

SMILES	activity change, negative = inhibition	Potency
Cc1cccc(Nc2ccc(NCc3ccccc3)nn2)c1		inconclusive [inhibitor, single point]
Cc1ccc(C)c(NC(=O)C2C3CCCC2C3c2ccccc2)c1 (stereo not drawn)		inconclusive [inhibitor, full curve, poor fit]
Cc1ccc(CC2(O)CC(C)N(C)CC2C)c(C)c1 (stereo not drawn)		inconclusive [inhibitor, full curve, poor fit]
COc1cccc(-c2nn(-c3ccccc3)cc2CN(C)C(C)c2ccon2)c1 (stereo not drawn)		inconclusive [inhibitor, partial curve, poor fit]
CCOC(=O)c1ccc2c(c1)[C@@H]1C=CC[C@@H]1[C@H](c1cccc(OC)c1OC)N2		inconclusive [inhibitor, partial curve, poor fit]
CC1=CC(C)(C)N(S(=O)(=O)c2ccc(C)cc2)c2ccccc21		inconclusive [inhibitor, partial curve, poor fit]
Cc1ccc(C)c(N(CC(=O)NCc2ccco2)C(=O)CNS(=O)(=O)c2ccccc2)c1		inconclusive [inhibitor, partial curve, poor fit]
CCN1CCN(CC(=O)Nc2cc(S(=O)(=O)N3CCCCC3)ccc2Cl)CC1		inconclusive [inhibitor, single point]
CCOC(=O)N1CCN(c2c(NCCCN(C)c3ccccc3)c(=O)c2=O)CC1	inactive: 0.842%	
CCc1ccc(NC(=S)NC(=O)CC(C)C)cc1		inconclusive [inhibitor, single point]
Cn1c(SCC(=O)Nc2nccs2)nnc1-c1ccc(S(=O)(=O)N2CCCC2)cc1	inactive: 9.92%	
Cc1ccc(NC(=O)CCn2c(=O)c3cccn3c3ccccc32)c(C)c1		inconclusive [inhibitor, full curve]
CCCC(=O)C1=C(c2cccc(OC)c2)N(C(=O)CCC)n2c(C)nnc2S1		inconclusive [inhibitor, single point]
O=C(CC(Nc1ccccc1Cl)C(=O)O)c1ccccc1 (stereo not drawn)	inactive: -27.9%	
COc1ccc(C2CC(=O)Oc3cc(C)c(Cl)c(C)c32)cc1 (stereo not drawn)		inconclusive [inhibitor, single point]
Cc1cccc(OCC(O)CN2CC3(C)CC2CC(C)(C)C3)c1 (stereo not drawn)		inconclusive [inhibitor, single point]
COc1ccccc1CN1C(=O)[C@@H]2C(CCC(N)=O)NC3(C(=O)Nc4c3ccc(Cl)c4C)[C@@H]2C1=O (stereo partly drawn)		inconclusive [inhibitor, partial curve, poor fit]
CC1(C(=O)NCc2cccnc2)Cc2c(-c3cccc(C(F)(F)F)c3)ccnc2O1 (stereo not drawn)		inconclusive [inhibitor, single point]
COc1cc(OC)c(NC(=O)CCNS(=O)(=O)c2cc(Br)cnc2N)cc1Cl		inconclusive [inhibitor, single point]
O=C(CCC(=O)c1ccccc1)Nc1ccc(F)c(Cl)c1	inactive: -5.06%	
CC(C(=O)Nc1ccc(S(=O)(=O)N2CCCC2)cc1)N1CCN(c2ccccc2O)CC1 (stereo not drawn)		inconclusive [inhibitor, single point]

SMILES	activity change, negative = inhibition	Potency
O=c1ccc(S(=O)(=O)N2CCCC2)cn1Cc1ccc(Cl)cc1Cl		inconclusive [inhibitor, partial curve, poor fit]
C=C1CCN([C@@H](CC(C)C)C(=O)NCc2ccc(OC)cc2)S(=O)(=O)c2ccccc21		inconclusive [inhibitor, single point]
Cc1ccc(C)c(S(=O)(=O)NCCc2csc(-c3ccc(Cl)cc3)n2)c1		inconclusive [inhibitor, partial curve, poor fit]
CCOC(=O)c1c(C)n(C)c2ccc(OCC(O)CN3CCN(C)CC3)cc12 (stereo not drawn)	inactive: 1.2%	
COC(=O)[C@]12CCCCC=C1N(Cc1ccco1)C(=O)[C@H](CC(=O)NCc1cccc3ccccc13)C2		inconclusive [inhibitor, single point]
CC(=O)c1ccc(N2CCN(C(=O)c3cc4ccc5cccnc5c4[nH]3)CC2)cc1	inactive: 4.51%	
S=C(NCCCN1CCOCC1)N1CCN(c2cccc(Cl)c2)CC1		inconclusive [inhibitor, partial curve, poor fit]
O=C(c1cnc(N2CCCCC2)c2ccccc12)N1CCN(c2ccc(Cl)cc2)CC1		inconclusive [inhibitor, partial curve, poor fit]
Nc1cccc(-c2cn3cc(C(F)(F)F)cc(Cl)c3n2)c1		inconclusive [inhibitor, single point]
Cc1ccccc1-c1n[nH]c(=S)n1/N=C/c1ccc(-c2ccccc2Br)o1		inconclusive [inhibitor, full curve]
Cc1cccc(OC(C)C(=O)NCc2ccc(S(N)(=O)=O)cc2)c1 (stereo not drawn)	inactive: 1.11%	
O=C(c1ccc2c(c1)N(Cc1ccc(F)cc1)C(=O)c1ccccc1S2(=O)=O)N1CCN(c2ccccn2)CC1		inconclusive [inhibitor, single point]
O=C(NCc1ccc(F)cc1F)[C@@H]1CCCN1C(=O)[C@@H]1CCCN1C(=O)c1cccc(Cl)c1	inactive: 23.8%	
O=C(Nc1ccccc1C(=O)NCCCN1CCOCC1)c1ccccc1	inactive: 0.42%	
CCc1cccc(NS(=O)(=O)c2ccc3c(c2)N(C)CCO3)c1		inconclusive [inhibitor, partial curve, poor fit]
Cn1c(-c2ccccc2)cnc1N	inactive: 3.98%	
COc1ccccc1N1CCN(CCCNC(=O)c2cnn(-c3ccc(C)c(C)c3)c2C2CCN(C(=O)OC(C)(C)C)CC2)CC1		inconclusive [inhibitor, partial curve, poor fit]
Cc1c(C(=O)NC2CCC(C)CC2)oc2ccccc12 (stereo not drawn)		inconclusive [inhibitor, single point]
COC(=O)[C@H](CC(C)C)N1Cc2cc(OC)cc(OC)c2-c2ccccc2S1(=O)=O		inconclusive [inhibitor, single point]
Cc1cn(C2OC(COC(=O)c3ccccc3)C(OC(=O)c3ccccc3)C2OC(=O)c2ccccc2)c(=O)[nH]c1=O (stereo not drawn)	inactive: -9.23%	
O=c1[nH]c(CSc2cccc[n+]2[O-])nc2ccccc12		inconclusive [inhibitor, single point]
